Assay results as given in PubChem BioAssay AID488969 (Vanderbilt High Throughput Screening Facility, 2010).
The full ranking holds about 110,000 compounds; the median of “z-score” is about -0.1, and the highest 2% start at about 2. Some of the results follow.

Target: Metabotropic glutamate receptor 8 (Rattus norvegicus) (UniProt P70579)
Test: mGluR8 Gi/Go-coupled signaling modulation – cell-based, rat, thallium flux, HTS, primary screen (AID 488969)
Conditions: HEK293 rat mGluR8, GIRK (G protein-gated inwardly rectifying potassium channel) thallium flux, FluoZin2; at 10 µM; stronger effect = higher value

Chain of UniProt P70579 (P70579 whole entry, looked up): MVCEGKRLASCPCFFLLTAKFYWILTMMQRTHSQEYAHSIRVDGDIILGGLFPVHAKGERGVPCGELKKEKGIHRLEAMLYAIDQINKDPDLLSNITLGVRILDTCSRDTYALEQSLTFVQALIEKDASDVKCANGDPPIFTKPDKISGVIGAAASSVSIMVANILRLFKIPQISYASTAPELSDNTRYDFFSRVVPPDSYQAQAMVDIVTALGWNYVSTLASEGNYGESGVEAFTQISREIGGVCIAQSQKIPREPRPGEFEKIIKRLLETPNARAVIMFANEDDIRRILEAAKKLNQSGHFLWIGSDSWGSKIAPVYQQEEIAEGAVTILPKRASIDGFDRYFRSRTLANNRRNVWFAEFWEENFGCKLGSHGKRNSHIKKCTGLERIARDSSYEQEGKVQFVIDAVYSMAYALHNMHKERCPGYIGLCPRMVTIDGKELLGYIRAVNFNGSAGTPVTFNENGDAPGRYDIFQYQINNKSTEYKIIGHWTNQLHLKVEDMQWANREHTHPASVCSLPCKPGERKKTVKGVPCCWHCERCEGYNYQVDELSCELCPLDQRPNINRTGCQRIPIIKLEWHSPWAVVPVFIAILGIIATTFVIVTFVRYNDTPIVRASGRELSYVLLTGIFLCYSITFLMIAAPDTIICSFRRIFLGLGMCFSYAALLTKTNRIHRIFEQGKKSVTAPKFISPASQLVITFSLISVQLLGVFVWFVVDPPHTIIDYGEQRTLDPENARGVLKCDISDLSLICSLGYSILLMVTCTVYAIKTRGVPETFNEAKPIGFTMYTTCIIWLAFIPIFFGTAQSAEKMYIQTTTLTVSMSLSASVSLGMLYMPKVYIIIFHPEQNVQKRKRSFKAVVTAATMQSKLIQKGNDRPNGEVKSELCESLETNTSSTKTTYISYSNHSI

| SMILES | z-score |
| --- | --- |
| CC(=O)OC1N=C(c2ccccc2)c2cc(C)ccc2NC1=O (configuration not stated) | -0.00312 |
| CN(C)P(=O)(C(Cl)=C(N1CCCCC1)N1CCCCC1)N(C)C | -1.19 |
| C=CCn1c(O)c(C(CC)=NC2CC2)c(=O)[nH]c1=O | 0.102 |
| Cc1[nH]c2c(Cl)cccc2c1CCN | 0.371 |
| CN1CCN(c2nc3ccccn3c(=O)c2C=C2C(=O)N(C)C(=O)N(C)C2=O)CC1 | -0.342 |
| CCn1c(O)c(C=NCc2cccs2)c(=O)[nH]c1=O | 0.34 |
| CCOC(C(=O)OCCC[N+](C)(CC)CC)(c1ccccc1)c1ccccc1 | 0.315 |
| O=C(O)CCn1cc(C=C2C(=O)NC(=O)NC2=O)c(-c2ccc(Br)cc2)n1 | -0.399 |
| CCOC(=O)c1cccc([P+](=O)O)c1 | 0.00569 |
| Cc1cccc(-n2c(O)c(/C=N/N3CCOCC3)c(=O)[nH]c2=S)c1 | 0.213 |
| COc1ccccc1N(CC(=O)NC1CCCC1)C(=O)c1cnn(C(C)C)c1 | 0.12 |
| O=C(Cn1ncc2ccsc2c1=O)N1CCC2(CC1)OCCO2 | 0.0064 |
| C=CCn1c(O)c(C(C)=Nc2ccc(NC(C)=O)cc2)c(=O)[nH]c1=O | 0.205 |
| CCCC12CN3CN(C1)CC(CCC)(C3)C2O (configuration not stated) | 0.0139 |
| COC(=O)C(O)(c1ccc(NC(=S)NC(=O)c2ccc(Cl)cc2Cl)c(C)c1)C(F)(F)F (configuration not stated) | 1.19 |
| CCN(CC)CCOC(=O)c1ccc(N=Cc2c(O)[nH]c(=O)[nH]c2=O)cc1 | -0.19 |
| CCC(=NCC1CCCO1)c1c(O)n(Cc2ccccc2)c(=O)[nH]c1=O (configuration not stated) | -0.35 |
| CC(=NCC1CCCO1)c1c(O)n(-c2ccc(Cl)cc2)c(=O)[nH]c1=O (configuration not stated) | -1.18 |
| CCCCn1c(O)c(C(C)=NCCCn2ccnc2)c(=O)[nH]c1=O | 2.03 |
| CCC(CC)N1CCN(C(=O)Cc2ccccc2)CC1 | -1 |
| CCOc1ccc(-n2c(O)c(C=Nc3ccc(N4CCOCC4)cc3)c(=O)[nH]c2=O)cc1 | -0.315 |
| CCOC(=O)Cn1cc([N+](=O)[O-])nc1[N+](=O)[O-] | -0.0497 |
| O=C1CCCC2=C1C(c1cccnc1)Nc1ccccc1N2 (configuration not stated) | -0.306 |
| CCCCNc1ccncc1S(=O)(=O)NC(=O)NC(C)C | 0.211 |

| SMILES | z-score |
| --- | --- |
| O=Cc1cn(Cc2ccc([N+](=O)[O-])cc2)c2ccccc12 | -0.285 |
| C=CCN1C(=O)NC(=O)/C(=C/c2cnc(SC)nc2)C1=O | -0.204 |
| CC(C)CCOC(=O)c1c(N)n(CC2CCCO2)c2nc3ccccc3nc12 (configuration not stated) | -0.606 |
| CCc1c(C)nc(N)nc1N1N=C1SCC(N)=O | 0.609 |
| CCCOC(=O)c1c(N)n(Cc2cccs2)c2nc3ccccc3nc12 | -0.325 |
| N#CC1=C(N)Oc2c(c(=O)oc3ccccc23)C1c1ccncc1 (configuration not stated) | -0.0723 |
| CC1SC2(CN3CCC2CC3)NC1=O (configuration not stated) | -0.0378 |
| CCOc1ccc(/C=C2/C(=O)NC(=O)N(CCc3ccc(F)cc3)C2=O)cc1 | -0.376 |
| COCc1cc(C2SCC(=O)Nc3c2c(=O)[nH]n3C(C)C)ccc1OC (configuration not stated) | -0.915 |
| CCSc1nnc(C(N)Cc2ccccc2)o1 (configuration not stated) | 0.136 |
| CC(C)NC(=O)Cn1cc(C(=O)c2ccccc2F)c2ccccc21 | -0.23 |
| Cc1sc2ncn(CC(=O)NCCCC(=O)N3CCC4(CC3)OCCO4)c(=O)c2c1C | -0.142 |
| Cc1nn(Cc2ccccc2)c(C)c1C(=O)OCC(=O)NCc1ccco1 | -0.108 |
| Cn1c(O)c(C(c2ccccn2)c2c(O)n(C)c(=S)[nH]c2=O)c(=O)[nH]c1=S | -0.0951 |
| CN1C(=O)C(=Cc2ccccc2OCc2ccccc2Cl)C(=O)N(C)C1=O | -0.259 |
| Cc1cc(OC(=O)c2ccco2)c2c3c(c(=O)oc2c1)CCCC3 | 1.05 |
| Cc1ccc(-c2nc(CS(=O)CC(=O)N3CCC4(CC3)OCCO4)c(C)o2)cc1 (configuration not stated) | 1.52 |
| CCOP(=O)(OCC)C(C)(C)NC(=O)C(Cl)(Cl)Cl | 0.176 |
| COc1cccc(C2CC3C(=O)C=CC2N3Cc2ccccc2)c1 (configuration not stated) | -0.129 |
| CC(Cc1ccccc1)[n+]1cc(/N=C(\[O-])Nc2ccccc2)on1 (configuration not stated) | 0.153 |
| CCCC(C)C1C(C#N)=C(N)Oc2c1c(=O)oc1ccccc21 (configuration not stated) | 0.0029 |
| CC(C)CNC(=O)c1c(N)n(Cc2ccc3c(c2)OCO3)c2nc3ccccc3nc12 | 0.129 |
| Cc1ccc2ccccc2c1NC(=O)CNC1CCCCC1 | -0.297 |
| Cc1nn(CCC#N)c2c1P(=S)(N1CCCC1)OC(c1ccc(F)cc1)=N2 (configuration not stated) | -1.71 |

| SMILES | z-score |
| --- | --- |
| CCCCc1nc2ccccc2c(=O)n1-c1ccc(Cl)cc1[N+](=O)[O-] | -0.107 |
| Cn1c(O)c(C(=N)COc2cccc(Cl)c2)c(=O)n(C)c1=O | 0.514 |
| O=C1CN=C(c2ccc(Br)cc2)c2oc3ccccc3c2N1 | -0.00811 |
| Cc1ccc(N2C(=O)/C(=C/N3CCN(C(=O)c4ccco4)CC3)C(=O)NC2=S)cc1C | -0.105 |
| O=C(Cc1ccc(Br)cc1)N1CCN(Cc2ccccc2)CC1 | 0.0955 |
| CC(=O)NC1CC2CCC(C1)N2 (configuration not stated) | -0.344 |
| CCCCOP(=O)(CN1CCOCC1)OCCCC | -0.167 |
| CC1=CC(=C2C(=O)NC(=O)NC2=O)C=C(C(F)(F)F)N1C(C)C | 0.0509 |
| Cc1nc2cc(-c3ccc(Cl)cc3)nn2c(C)c1CCC(=O)N1CCC2(CC1)OCCO2 | 0.0371 |
| CC1=CC(=C2C(=O)NC(=S)NC2=O)C=C(C(F)(F)F)N1C | -0.0498 |
| CCN(CC)CCCNC(=O)c1c(O)c2ccccc2n(Cc2ccccc2)c1=O | 0.385 |
| O=[N+]([O-])c1ccc(C2[C@H]3C(c4ccccc4)=NC4(CCCC4)N23)cc1 (some centres not stated) | -0.693 |
| Cn1nc(N)c2c1N=P(N1CCOCC1)(N1CCOCC1)N=C2c1ccccc1 | 0.605 |
| CCOC(=O)c1nc2ccccc2c(=O)n1-c1ccc(C)cc1 | -0.15 |
| CCOCCN1CCC(OC(C)=O)C(C)C1 (configuration not stated) | 0.256 |
| COc1ccc(C(=O)C(C)(C)NO)cc1 | 0.0653 |
| COc1cc2c(C(=O)N3CCN(C)CC3)c(C)n(C)c2cc1Br | 0.0254 |
| Cc1nc2ccc(Cl)cc2c(-c2ccccc2)c1C(=O)O | -0.396 |
| O=[N+]([O-])c1ccc(N2CCNCC2)cc1NCC1CCCO1 (configuration not stated) | 0.0282 |
| COCCn1c(-c2ccccc2)cc(C(=O)O)c1C | 2.06 |
| N=C1c2ccccc2CN1CC(=O)c1ccccc1 | -0.0986 |
| Nc1c(C(=O)NCc2ccco2)c2nc3ccccc3nc2n1CCN1CCOCC1 | -0.573 |
| CC1(C)C(c2ccccc2)=NC(c2cccnc2)N1O (configuration not stated) | 0.423 |
| O=C1CC(c2ccccc2)CC(O)=C1C=NCCN1CCN(C(=O)Cc2ccccc2)CC1 (configuration not stated) | -0.192 |
